{"source": "the supplement of paper PMC4604168 (melanoma cell lines)", "note": "The list shows a part of the results. Most values come without repeats; read them as rough.", "data": [{"test_system": "G361", "test": "cell count relative to DMSO control; melanoma cells; higher = more viable cells", "conditions": "library dose: low library concentration; 72 h", "units": {"cell count": "%"}, "values": [{"compound": "NC(=O)c1ccc(N(C(N)=O)c2c(F)cccc2F)nc1-c1ccc(F)cc1F", "note": "+ Cn1cncc1[C@@](N)(c1ccc(Cl)cc1)c1ccc2c(c1)c(-c1cccc(Cl)c1)cc(=O)n2C [tipifarnib] (first compound 0.4 µM, partner dose 0.01 µM);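 note: cell number obtained by counting DAPI-stained nuclei in high-throughput microscope images with image analysis software, screen run in 1,536-well plates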", "cell count": 92.8}, {"compound": "NC(=O)c1ccc(N(C(N)=O)c2c(F)cccc2F)nc1-c1ccc(F)cc1F", "note": "+ CO[C@@H]1[C@H](N(C)C(=O)c2ccccc2)C[C@H]2O[C@]1(C)n1c3ccccc3c3c4c(c5c6ccccc6n2c5c31)C(=O)NC4 [Midostaurin] (first compound 0.4 µM, partner dose 0.08 µM)", "cell count": 93.7}, {"compound": "NC(=O)c1ccc(N(C(N)=O)c2c(F)cccc2F)nc1-c1ccc(F)cc1F", "note": "+ CN(NC(=O)CC(=O)NN(C)C(=S)c1ccccc1)C(=S)c1ccccc1 [STA4783] (first compound 0.4 µM, partner dose 0.006 µM)", "cell count": 76.9}, {"compound": "Cc1ccc(NC(=O)c2cccc(N(C)C)c2)cc1NC(=O)c1ccc(O)cc1", "note": "+ O=C(O)c1ccc(-c2c[nH]c3ncc(-c4ccccc4)cc23)cc1C1CCCC1 [GSK650394] (first compound 2 µM, partner dose 0.16 µM)", "cell count": 92.7}, {"compound": "NC(=O)c1ccc(N(C(N)=O)c2c(F)cccc2F)nc1-c1ccc(F)cc1F", "note": "+ Cc1cc(N2CCOCC2)cc2[nH]c(-c3c(NC[C@@H](O)c4cccc(Cl)c4)cc[nH]c3=O)nc12 [BMS536924] (first compound 0.4 µM, partner dose 0.2 µM)", "cell count": 88.3}, {"compound": "NC(=O)c1ccc(N(C(N)=O)c2c(F)cccc2F)nc1-c1ccc(F)cc1F", "note": "+ COc1cc(Nc2ncc(F)c(Nc3ccc4c(n3)NC(=O)C(C)(C)O4)n2)cc(OC)c1OC [Tamatinib] (first compound 0.4 µM, partner dose 0.4 µM)", "cell count": 82.2}, {"compound": "CCCCCCCCc1ccc(CCC(N)(CO)CO)cc1", "note": "[fingolimod] + CN(C)S(=O)(=O)c1ccc2c(c1)/C(=C/c1cc3c([nH]1)CCCC3)C(=O)N2 [SU6656] (first compound 2 µM, partner dose 0.4 µM)", "cell count": 90.3}, {"compound": "CCCCCCCCc1ccc(CCC(N)(CO)CO)cc1", "note": "[fingolimod] + OCCn1cc(-c2cnc3nnn(Cc4ccc5ncccc5c4)c3n2)cn1 [PF04217903] (first compound 2 µM, partner dose 1 µM)", "cell count": 91.4}, {"compound": "NC(=O)c1ccc(N(C(N)=O)c2c(F)cccc2F)nc1-c1ccc(F)cc1F", "note": "+ NC(=O)Nc1cc(-c2cccc(F)c2)sc1C(=O)N[C@H]1CCCNC1 [AZD7762] (first compound 0.4 µM, partner dose 0.02 µM)", "cell count": 92}, {"compound": "NC(=O)c1ccc(N(C(N)=O)c2c(F)cccc2F)nc1-c1ccc(F)cc1F", "note": "+ O=C(O)c1ccc(-c2c[nH]c3ncc(-c4ccccc4)cc23)cc1C1CCCC1 [GSK650394] (first compound 0.4 µM, partner dose 0.16 µM)", "cell count": 103}, {"compound": "CCCCCCCCc1ccc(CCC(N)(CO)CO)cc1", "note": "[fingolimod] + COc1cc(Nc2ncc(F)c(Nc3ccc4c(n3)NC(=O)C(C)(C)O4)n2)cc(OC)c1OC [Tamatinib] (first compound 2 µM, partner dose 0.4 µM)", "cell count": 87.3}, {"compound": "CC(C)(C)c1cnc(CSc2cnc(NC(=O)C3CCNCC3)s2)o1", "note": "+ O=C(Nc1cccc(Cl)c1)Nc1ncc(CCNc2ncnc3ccsc23)s1 [SNS314] (first compound 0.01 µM, partner dose 0.0008 µM)", "cell count": 85.8}, {"compound": "Cc1ccc(NC(=O)c2cccc(N(C)C)c2)cc1NC(=O)c1ccc(O)cc1", "note": "+ COc1cc2c(Oc3ccc4[nH]c(C)cc4c3F)ncnc2cc1OCCCN1CCCC1 [cediranib] (first compound 2 µM, partner dose 0.4 µM)", "cell count": 96.5}, {"compound": "NC(=O)c1ccc(N(C(N)=O)c2c(F)cccc2F)nc1-c1ccc(F)cc1F", "note": "+ C[C@@H]1CCN(C(=O)CC#N)C[C@@H]1N(C)c1ncnc2[nH]ccc12 [CP690550] (first compound 0.4 µM, partner dose 1 µM)", "cell count": 101}, {"compound": "NC(=O)c1ccc(N(C(N)=O)c2c(F)cccc2F)nc1-c1ccc(F)cc1F", "note": "+ CC(C)(C)c1cnc(CSc2cnc(NC(=O)C3CCNCC3)s2)o1 [SNS-032] (first compound 0.4 µM, partner dose 0.01 µM)", "cell count": 91}]}]}
